Test results from the supplement of paper PMC8728848.
Some of the results follow.

Tests used:
Experiment in all cases: glycan array binding signal (z-score within array); higher = stronger binding
Conditions in all cases: glycan notation: IUPAC condensed, linker removed
[1] = target: Gal(b1-4)GlcNAc(b1-3)Gal(b1-4)GlcNAc(b1-6)[Gal(b1-3)]GalNAc
Procedure, shortened: (§1)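 The binding signal is a Z-score computed within each array. Data were drawn from 3228 arrays in the Consortium for Functional Glycomics database, restricted to those with a known protein sequence. Scores were averaged over arrays of the same protein sequence at different concentrations or buffers, and over linkers, and negative values can be taken as non-binding.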

[2] = target: Gal(b1-4)GlcNAc(b1-3)Gal(b1-4)[Fuc(a1-3)]GlcNAc(b1-3)Gal(b1-4)[Fuc(a1-3)]GlcNAc
Procedure, shortened: as §1

[3] = target: Gal(b1-4)GlcNAc(b1-3)GalNAc
Procedure, shortened: as §1

[4] = target: Gal(b1-4)GlcNAc(b1-3)[Fuc(a1-3)GlcNAc(b1-6)]Gal(b1-4)Glc
Procedure, shortened: as §1

[5] = target: Gal(b1-4)GlcNAc(b1-3)[Gal(b1-4)GlcNAc(b1-6)]Gal(b1-4)GlcNAc
Procedure, shortened: as §1

[6] = target: Gal(b1-4)GlcNAc(b1-3)[GlcNAc(b1-6)]Gal(b1-4)GlcNAc
Procedure, shortened: as §1

[7] = target: Gal(b1-4)GlcNAc(b1-6)Gal(b1-4)GlcNAc
Procedure, shortened: as §1

[8] = target: Gal(b1-4)GlcNAc(b1-6)GalNAc
Procedure, shortened: as §1

[9] = target: Gal(b1-4)GlcNAc(b1-6)[Gal(b1-3)]GalNAc
Procedure, shortened: as §1

[10] = target: Gal(b1-4)GlcNAc(b1-6)[Gal(b1-4)GlcNAc(b1-3)]GalNAc
Procedure, shortened: as §1

Gal(b1-4)GlcNAc6P = target: Gal(b1-4)GlcNAc6P
Procedure, shortened: as §1

Gal(b1-6)Gal = target: Gal(b1-6)Gal
Procedure, shortened: as §1

Gal3S(b1-3)GalNAc = target: Gal3S(b1-3)GalNAc
Procedure, shortened: as §1

Gal3S(b1-3)GlcNAc = target: Gal3S(b1-3)GlcNAc
Procedure, shortened: as §1

[11] = target: Gal3S(b1-3)[Fuc(a1-4)]GlcNAc
Procedure, shortened: as §1

Gal3S(b1-4)Glc = target: Gal3S(b1-4)Glc
Procedure, shortened: as §1

Gal3S(b1-4)Glc6S = target: Gal3S(b1-4)Glc6S
Procedure, shortened: as §1

Gal3S(b1-4)GlcNAc = target: Gal3S(b1-4)GlcNAc
Procedure, shortened: as §1

[12] = target: Gal3S(b1-4)[Fuc(a1-3)]Glc6S
Procedure, shortened: as §1

[13] = target: Gal3S(b1-4)[Fuc(a1-3)]GlcNAc
Procedure, shortened: as §1

[14] = target: Gal3S(b1-4)[Fuc(a1-3)]GlcNAc6S
Procedure, shortened: as §1

Gal3S4S(b1-4)GlcNAc = target: Gal3S4S(b1-4)GlcNAc
Procedure, shortened: as §1

Gal3S6S(b1-4)GlcNAc = target: Gal3S6S(b1-4)GlcNAc
Procedure, shortened: as §1

Gal3S6S(b1-4)GlcNAc6S = target: Gal3S6S(b1-4)GlcNAc6S
Procedure, shortened: as §1

Gal4S(b1-4)GlcNAc = target: Gal4S(b1-4)GlcNAc
Procedure, shortened: as §1

Gal4S6S(b1-4)GlcNAc = target: Gal4S6S(b1-4)GlcNAc
Procedure, shortened: as §1

Gal6P(b1-4)GlcNAc = target: Gal6P(b1-4)GlcNAc
Procedure, shortened: as §1

Gal6S(b1-3)GlcNAc = target: Gal6S(b1-3)GlcNAc
Procedure, shortened: as §1

Gal6S(b1-3)GlcNAc6S = target: Gal6S(b1-3)GlcNAc6S
Procedure, shortened: as §1

Gal6S(b1-4)Glc = target: Gal6S(b1-4)Glc
Procedure, shortened: as §1

Gal6S(b1-4)Glc6S = target: Gal6S(b1-4)Glc6S
Procedure, shortened: as §1

Gal6S(b1-4)GlcNAc = target: Gal6S(b1-4)GlcNAc
Procedure, shortened: as §1

Gal6S(b1-4)GlcNAc6S = target: Gal6S(b1-4)GlcNAc6S
Procedure, shortened: as §1

GalNAc(a1-3)Gal = target: GalNAc(a1-3)Gal
Procedure, shortened: as §1

GalNAc(a1-3)GalNAc = target: GalNAc(a1-3)GalNAc
Procedure, shortened: as §1

[15] = target: GalNAc(a1-3)GalNAc(b1-3)Gal(a1-4)Gal(b1-4)Glc
Procedure, shortened: as §1

[16] = target: GalNAc(a1-3)GalNAc(b1-3)Gal(a1-4)Gal(b1-4)GlcNAc
Procedure, shortened: as §1

GalNAc(b1-3)Gal = target: GalNAc(b1-3)Gal
Procedure, shortened: as §1

[17] = target: GalNAc(b1-3)Gal(a1-4)Gal(b1-4)GlcNAc
Procedure, shortened: as §1

[18] = target: GalNAc(b1-3)Gal(a1-4)Gal(b1-4)GlcNAc(b1-3)Gal(b1-4)Glc
Procedure, shortened: as §1

[19] = target: GalNAc(b1-3)Gal(a1-6)Gal(b1-4)Glc
Procedure, shortened: as §1

GalNAc(b1-3)GalNAc = target: GalNAc(b1-3)GalNAc
Procedure, shortened: as §1

GalNAc(b1-3)GlcNAc = target: GalNAc(b1-3)GlcNAc
Procedure, shortened: as §1

GalNAc(b1-4)Gal(b1-4)Glc = target: GalNAc(b1-4)Gal(b1-4)Glc
Procedure, shortened: as §1

GalNAc(b1-4)GlcNAc = target: GalNAc(b1-4)GlcNAc
Procedure, shortened: as §1

B1: EULS2 M2 (Oryza sativa) (protein)
chain: MVYCRANPNYAMTARNGAVVLAPANPKDEYQHWIKDMRWSTSIKDEEGYPAFALVNKATGQAIKHSLGQSHPVRLVPYNPEVMDESVLWTESRDVGNGFRCIRMVNNIYLNFDAFHGDKYHGGVRDGTDIVLWKLCEGDSQRWKIQPYYILEQKLISEEDLNSAVDHHHHHH
glycan array binding signal (z-score) [1]: -0.28
glycan array binding signal (z-score) [2]: -0.355
glycan array binding signal (z-score) [3]: -0.649
glycan array binding signal (z-score) [4]: -0.485
glycan array binding signal (z-score) [5]: -0.297
glycan array binding signal (z-score) [6]: -0.542
glycan array binding signal (z-score) [7]: -0.692
glycan array binding signal (z-score) [8]: -0.343
glycan array binding signal (z-score) [9]: 0.142
glycan array binding signal (z-score) [10]: -0.205
glycan array binding signal (z-score) (Gal(b1-4)GlcNAc6P): -0.459
glycan array binding signal (z-score) (Gal(b1-6)Gal): 0.255
glycan array binding signal (z-score) (Gal3S(b1-3)GalNAc): -0.608
glycan array binding signal (z-score) (Gal3S(b1-3)GlcNAc): -0.359
glycan array binding signal (z-score) [11]: -0.012
glycan array binding signal (z-score) (Gal3S(b1-4)Glc): 0.35
glycan array binding signal (z-score) (Gal3S(b1-4)Glc6S): 1.07
glycan array binding signal (z-score) (Gal3S(b1-4)GlcNAc): -0.16
glycan array binding signal (z-score) [12]: 0.271
glycan array binding signal (z-score) [13]: -0.309
glycan array binding signal (z-score) [14]: 3.8
glycan array binding signal (z-score) (Gal3S4S(b1-4)GlcNAc): 1.61
glycan array binding signal (z-score) (Gal3S6S(b1-4)GlcNAc): 1.73
glycan array binding signal (z-score) (Gal3S6S(b1-4)GlcNAc6S): 13.3
glycan array binding signal (z-score) (Gal4S(b1-4)GlcNAc): -0.614
glycan array binding signal (z-score) (Gal4S6S(b1-4)GlcNAc): 1.33
glycan array binding signal (z-score) (Gal6P(b1-4)GlcNAc): -0.418
glycan array binding signal (z-score) (Gal6S(b1-3)GlcNAc): -0.324
glycan array binding signal (z-score) (Gal6S(b1-3)GlcNAc6S): 4.18
glycan array binding signal (z-score) (Gal6S(b1-4)Glc): -0.399
glycan array binding signal (z-score) (Gal6S(b1-4)Glc6S): 4.74
glycan array binding signal (z-score) (Gal6S(b1-4)GlcNAc): -0.408
glycan array binding signal (z-score) (Gal6S(b1-4)GlcNAc6S): 2.72
glycan array binding signal (z-score) (GalNAc(a1-3)Gal): 0.765
glycan array binding signal (z-score) (GalNAc(a1-3)GalNAc): -0.111
glycan array binding signal (z-score) [15]: -0.433
glycan array binding signal (z-score) [16]: -0.254
glycan array binding signal (z-score) (GalNAc(b1-3)Gal): 0.373
glycan array binding signal (z-score) [17]: -0.716
glycan array binding signal (z-score) [18]: -0.075
glycan array binding signal (z-score) [19]: 0.855
glycan array binding signal (z-score) (GalNAc(b1-3)GalNAc): 0.901
glycan array binding signal (z-score) (GalNAc(b1-3)GlcNAc): -0.575
glycan array binding signal (z-score) (GalNAc(b1-4)Gal(b1-4)Glc): 0.105
glycan array binding signal (z-score) (GalNAc(b1-4)GlcNAc): -0.429
